Experimental data from paper PMC7819943, “Rice protein-binding microarrays: a tool to detect cis-acting elements near promoter regions in rice”.
This is one part of the list.

Biological target: T1, OsWOX13 (Oryza sativa, UniProt Q5QMM3 1-267)
T1 sequence: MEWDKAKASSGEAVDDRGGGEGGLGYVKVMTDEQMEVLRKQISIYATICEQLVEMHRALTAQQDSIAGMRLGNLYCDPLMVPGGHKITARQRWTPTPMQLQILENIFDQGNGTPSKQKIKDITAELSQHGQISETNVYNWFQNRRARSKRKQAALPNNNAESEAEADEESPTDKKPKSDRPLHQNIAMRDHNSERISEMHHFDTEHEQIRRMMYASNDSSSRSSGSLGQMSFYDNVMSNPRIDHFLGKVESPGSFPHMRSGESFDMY
Assay: protein-binding microarray (RPBM); PBS, 2% BSA, 51.3 ng/ul salmon testes DNA, 50 uM zinc acetate, 200 nM TF, 25 C, 1 h; high values mean tight binding
Conditions: protein: recombinant; tags: N-terminal polyhistidine and DsRed monomer fusion (pET32a); label: CyDye5-dUTP incorporated in the synthesized complementary strand; 3' TTTTT single-stranded linker to array surface; dsDNA, one strand shown
In short: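 The binding signal is fluorescence intensity per feature, in arbitrary units, read on an Axon 4000B scanner. Polyhistidine- and DsRed-tagged transcription factors (N-terminal fusions) from E. coli BL21-CodonPlus were purified on Ni–NTA and applied at 200 nM for 1 h at 25 °C to a double-stranded, BSA-blocked custom Agilent array in buffer with 50 µM zinc acetate.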

Row | Sequence | binding signal
1 | AAATTAGACAGGAAGTTCCGAACCTGGAATACAGGAATTTCGGAGTCACCTAGTGCAG | 16800 fluorescence intensity (a.u.)
2 | CATGATTAATTAAATATTAACGATCATAAATTTGAAAATTCGGAGTCACCTAGTGCAG | 29300 fluorescence intensity (a.u.)
3 | ACGTAATTACTTCAAAATGATTTTACTGCTTCGCAATTACCGGAGTCACCTAGTGCAG | 42000 fluorescence intensity (a.u.)
4 | GTCAAACCAATTAACTATCGAACCGAGGGCCGCCGGTTCACGGAGTCACCTAGTGCAG | 4450 fluorescence intensity (a.u.)
5 | ACTTGTTTTACGTTCGGCTAATTAGCTGTTTGACCGTTTCCGGAGTCACCTAGTGCAG | 6740 fluorescence intensity (a.u.)
6 | TCTCAATCAACAGCCGTTCATTCACCCACCGAACAATCACCGGAGTCACCTAGTGCAG | 18900 fluorescence intensity (a.u.)
7 | ATTAAATAAATTGTAGATGATGTTGTATGCTTGTATGGGTCGGAGTCACCTAGTGCAG | 20800 fluorescence intensity (a.u.)
8 | ATCAGTGAAACTAATTAATATCCATATCTGCAATTCTCGTCGGAGTCACCTAGTGCAG | 3290 fluorescence intensity (a.u.)
9 | TCCCTTAATAGAGGGTTTCCAAACTATATGGGTGATTTGTCGGAGTCACCTAGTGCAG | 4010 fluorescence intensity (a.u.)
10 | GCTCACATCTATAACTAATCATTGATTCGGCATACTCATTCGGAGTCACCTAGTGCAG | 13000 fluorescence intensity (a.u.)
11 | GAAAATTATACTATGACAACAATATACTTGAGGTGATATCCGGAGTCACCTAGTGCAG | 3320 fluorescence intensity (a.u.)
12 | AGTGACAGTCTGACAGACAATTCAGAGTGAACAACATTCTCGGAGTCACCTAGTGCAG | 10500 fluorescence intensity (a.u.)
13 | ATTTTAAATAAATAATAATAATTTATGTCATCTAAACATACGGAGTCACCTAGTGCAG | 7590 fluorescence intensity (a.u.)
14 | CTAAATTTAAACTTTTCACTCAATTGAAACTTTTCAAATTCGGAGTCACCTAGTGCAG | 9300 fluorescence intensity (a.u.)
15 | TCAATAACCATTAATTACCATCCCCACAGTCTTCTCGTGGCGGAGTCACCTAGTGCAG | 10900 fluorescence intensity (a.u.)
16 | TAAAATTAATTACTCCGCTCATATGGATACATCGCCGCCTCGGAGTCACCTAGTGCAG | 31900 fluorescence intensity (a.u.)
17 | GGGATAATTGTTCAGTCTTAGGCGAGCACAGATTTATCATCGGAGTCACCTAGTGCAG | 16100 fluorescence intensity (a.u.)
18 | GTATAGTCTCTCCAATCAAATTTATTTGATGTTGAAAAGGCGGAGTCACCTAGTGCAG | 10700 fluorescence intensity (a.u.)
19 | CCCAATTATGTTGGATCAATTTGACTATTTGACATATGCACGGAGTCACCTAGTGCAG | 12600 fluorescence intensity (a.u.)
20 | CTGACTTTGTCATACGTCTATGATTTGCCACTGACTTTATCGGAGTCACCTAGTGCAG | 4530 fluorescence intensity (a.u.)
21 | CTAGTGGATTGATTCCTGGTCTCTTATTGTCCCTATCATGCGGAGTCACCTAGTGCAG | 31600 fluorescence intensity (a.u.)

Row | Sequence | binding signal
22 | TTAATTAGTGGATAATGATGTGGCATCTTTGCATGTTAAGCGGAGTCACCTAGTGCAG | 30300 fluorescence intensity (a.u.)
23 | GTTTGAACCAAATCTTAATTGATAAATTGCACCGGAGCAGCGGAGTCACCTAGTGCAG | 20200 fluorescence intensity (a.u.)
24 | TTTGTGATTTTCCAAAGAATTAATCTTCGAGTGGGCTAAGCGGAGTCACCTAGTGCAG | 3260 fluorescence intensity (a.u.)
25 | CGCAACATGATATCTATCAGTGGAGGATTGAGTAGCTGCACGGAGTCACCTAGTGCAG | 3780 fluorescence intensity (a.u.)
26 | GCTAACAAATTATATTCGGCAACTAGGTGCAAGTGTTGGGCGGAGTCACCTAGTGCAG | 12000 fluorescence intensity (a.u.)
27 | ACAGCAAGAAATTACTTTCAAATTGATCTGTGATGTGCCACGGAGTCACCTAGTGCAG | 6440 fluorescence intensity (a.u.)
28 | ATTTAATTATTACCACTAACATAATAGGAAGGTACAGGGGCGGAGTCACCTAGTGCAG | 20800 fluorescence intensity (a.u.)
29 | AATATTTCTGATTGAGGATTTCATTTCCGATCTGTAGAAACGGAGTCACCTAGTGCAG | 16100 fluorescence intensity (a.u.)
30 | TCGTTTTAATTGACCACGTACTCAATCCGGTACTCTCCTTCGGAGTCACCTAGTGCAG | 20600 fluorescence intensity (a.u.)
31 | TGTTTGGATGATTTTATGGATGATCACTTCTCTTTATTTACGGAGTCACCTAGTGCAG | 3280 fluorescence intensity (a.u.)
32 | ATTGGATTGGTTAAAATTTTAATGTTAATTTATATAATTTCGGAGTCACCTAGTGCAG | 12200 fluorescence intensity (a.u.)
33 | ACACCATCACGTGAGTTGATTTGCCCTGATTTTCGAAGATCGGAGTCACCTAGTGCAG | 17500 fluorescence intensity (a.u.)
34 | TTTTGATTTGAGAAAATCGCGTGTTCTTTTGGAGGGAAGACGGAGTCACCTAGTGCAG | 11400 fluorescence intensity (a.u.)
35 | CAAGTGTGAATGCCAATCATAGCTCGATCGGATTGGATTCCGGAGTCACCTAGTGCAG | 24200 fluorescence intensity (a.u.)
36 | AGTAAACTGGTTTTCAGAATTGCAGCACTAGAGTGGTGTGCGGAGTCACCTAGTGCAG | 5260 fluorescence intensity (a.u.)
37 | TAAATTTGAATATAAATTTCGATGGAATAACTTAGACTTGCGGAGTCACCTAGTGCAG | 4900 fluorescence intensity (a.u.)
38 | ACTTAAAGCGATAATTATTTTAGGATGGATGTAGTATGTACGGAGTCACCTAGTGCAG | 3510 fluorescence intensity (a.u.)
39 | TACTGCATGATTATTAAGTAGGGATCACCATCTGCTTATTCGGAGTCACCTAGTGCAG | 5940 fluorescence intensity (a.u.)
40 | TTAGATAAGATAGACTGCGATAATATAAGATACTATACAACGGAGTCACCTAGTGCAG | 3470 fluorescence intensity (a.u.)
41 | AATGATAAATGATATGCAGCCGATCTATGATGGAGCAGCTCGGAGTCACCTAGTGCAG | 9020 fluorescence intensity (a.u.)
42 | CTTAATTAGCTCGGAAGCCTTTTCACTTTTCAGCCATGAGCGGAGTCACCTAGTGCAG | 44500 fluorescence intensity (a.u.)
